From PMC4336329 (PLoS ONE, 2015)
In all, about 310,000 compounds went through this assay and about 14,000 (4.5%) showed an effect of 50% or more. Effects have a minus sign here. This is one part of the list.

Target: human ether-à-go-go-related gene (hERG) potassium channel (human, UniProt Q12809)
Experiment: primary screen, population patch clamp on CHO cells stably expressing hERG
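Further: peak tail current of the secondary pulse compared with the same well before compound.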

Chain of human ether-à-go-go-related gene (hERG) potassium channel (Q12809 whole entry, looked up): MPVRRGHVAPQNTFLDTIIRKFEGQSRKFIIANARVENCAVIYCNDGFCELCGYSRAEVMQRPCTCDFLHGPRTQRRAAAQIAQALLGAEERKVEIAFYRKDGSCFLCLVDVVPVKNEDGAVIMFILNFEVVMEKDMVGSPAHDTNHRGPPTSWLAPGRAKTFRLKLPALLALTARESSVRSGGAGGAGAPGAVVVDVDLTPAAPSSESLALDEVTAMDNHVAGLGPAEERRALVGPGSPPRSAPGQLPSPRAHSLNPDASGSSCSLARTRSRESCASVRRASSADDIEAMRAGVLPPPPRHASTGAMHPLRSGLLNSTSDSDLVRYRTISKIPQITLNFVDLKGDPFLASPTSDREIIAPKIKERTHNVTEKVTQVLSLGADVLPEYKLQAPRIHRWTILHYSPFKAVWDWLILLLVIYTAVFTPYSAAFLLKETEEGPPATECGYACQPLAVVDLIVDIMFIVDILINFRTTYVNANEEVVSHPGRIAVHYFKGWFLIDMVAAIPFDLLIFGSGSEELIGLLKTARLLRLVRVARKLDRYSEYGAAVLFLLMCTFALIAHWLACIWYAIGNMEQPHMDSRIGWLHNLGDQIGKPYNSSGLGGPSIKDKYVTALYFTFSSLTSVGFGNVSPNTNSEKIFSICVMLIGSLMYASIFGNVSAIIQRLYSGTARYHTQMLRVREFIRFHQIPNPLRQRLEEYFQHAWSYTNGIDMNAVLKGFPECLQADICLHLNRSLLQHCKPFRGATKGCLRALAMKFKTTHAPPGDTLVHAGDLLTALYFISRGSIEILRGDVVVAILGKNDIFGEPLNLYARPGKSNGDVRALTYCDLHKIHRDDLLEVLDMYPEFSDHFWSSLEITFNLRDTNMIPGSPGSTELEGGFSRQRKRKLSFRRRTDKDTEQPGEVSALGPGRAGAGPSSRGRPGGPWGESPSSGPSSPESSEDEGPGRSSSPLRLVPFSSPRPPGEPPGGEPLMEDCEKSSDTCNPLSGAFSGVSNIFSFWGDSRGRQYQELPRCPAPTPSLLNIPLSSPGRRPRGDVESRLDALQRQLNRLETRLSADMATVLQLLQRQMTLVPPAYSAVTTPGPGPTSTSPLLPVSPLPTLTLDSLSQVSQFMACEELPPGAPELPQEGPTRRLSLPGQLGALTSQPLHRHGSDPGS

| SMILES | hERG current change (%, negative = inhibition) at 10uM [%] |
| --- | --- |
| O=C(O)c1ncc(-c2ccccc2)cn1 | 2.35 |
| Cc1cccc(OCC(=O)Nc2nc3ccc([N+](=O)[O-])cc3s2)c1 | 15.6 |
| COC(=O)c1ccc(C(=O)OC)c(NC(=O)CSCc2ccccc2Br)c1 | 3.9 |
| O=C(Nc1ccc(Cl)c(NC(=O)c2cccs2)c1)c1ccco1 | -10.6 |
| NC(=S)NNc1cc(Cl)cc(Cl)c1 | -9.77 |
| OC(C#CCN1CCOCC1)c1cccs1 (stereo not drawn) | 11.6 |
| COc1ccc(CCN2C(=S)N(C)C(=O)C2CC(=O)Nc2ccc(F)cc2)cc1 (stereo not drawn) | 4.77 |
| CCOC(=O)C(=CNc1ccc(Cl)cn1)C(=O)OCC | 19 |
| O=C(O)CCc1ccc(-c2ccc(Cl)cc2)n1NC(=O)c1ccc(O)cc1 | 48.2 |
| COc1ccc(N(CC(=O)Nc2ccccc2C(F)(F)F)C2=NC3CS(=O)(=O)CC3S2)cc1 (stereo not drawn) | -25.1 |
| Cc1cc(-c2cccs2)nc(-n2cccc2)n1 | 12 |
| CC(=O)Nc1cc(NC(C)=O)cc(C(=O)OC(C)C(=O)Nc2ccc(S(=O)(=O)N3CCCC3)cc2)c1 (stereo not drawn) | -9.78 |
| CCCCc1ccc(NC(=S)N2CCN(C)CC2)cc1 | -33.8 |
| COc1ccccc1C(N)=S | 17 |
| CCc1cc(=O)oc2cc(OCC(=O)N3CCC(C(N)=O)CC3)ccc12 | 9.13 |
| CCOc1cc2c(C#N)c(N(CC)CC)nc(N)c2c(N)n1 | -14.8 |
| CCOC(=O)N1CCN(c2c(NCCCOC(C)C)c(=O)c2=O)CC1 | -19.7 |
| O=C(Nc1cccc([N+](=O)[O-])c1)C1CC(=O)N(Cc2ccccc2)C1 (stereo not drawn) | -53.2 |
| O=C(NNc1c(Cl)cncc1Cl)c1sccc1Cl | 4.01 |
| CN(C)C(CNC(=O)c1cccs1)c1cccnc1 (stereo not drawn) | 18.7 |
| COc1ccc(CC(=O)NCc2ccc(-n3cccc3)cc2)cc1OC | -6.68 |
| CCOC(=O)c1ccc(NS(=O)(=O)c2ccc3c(c2)n(C)c(=O)n3C)cc1 | 11.9 |
| CC(Sc1nnnn1-c1ccccc1)C(=O)Nc1ccc(Cl)cn1 (stereo not drawn) | -54.2 |

| SMILES | hERG current change (%, negative = inhibition) at 10uM [%] |
| --- | --- |
| COc1cccc(-c2cc(C(=O)N3CCN(C(=O)c4ccco4)CC3)[nH]n2)c1 | -16.2 |
| COc1ccc(S(=O)(=O)N(CCC(N)=O)Cc2ccco2)cc1OC | 9.51 |
| CCOC(=O)C1C(=O)NC(SCC(N)=O)=C(C#N)C1c1ccccc1OCC (stereo not drawn) | 6.84 |
| CCCOc1ccc(-c2nnc(-c3cccs3)o2)cc1 | 6.65 |
| COc1cccc(NC(=S)C(C#N)=C2N(C)c3ccccc3N2C)c1 | 4.88 |
| O=[N+]([O-])c1ccc(Cl)c(/C=N/Nc2nc(N3CCOCC3)nc(N3CCOCC3)n2)c1 | 8.25 |
| C=C(C)CC1(NC(C)c2ccccc2)CCCCC1 (stereo not drawn) | 4 |
| CC(C)[C@H](NC(=O)N1CC(=O)Nc2ccccc21)C(=O)N[C@@H](C(=O)O)c1ccccc1 | 13.3 |
| Cc1[nH]c(-c2ccco2)nc1C(=O)O | -10.7 |
| Cc1cc(C)nc(N/N=C/c2ccc([N+](=O)[O-])o2)n1 | 2.14 |
| O=C(CSc1ccc(Cl)cc1)Nc1nnc(-c2ccco2)o1 | -12.2 |
| C=CCOc1cccc(CNCc2cccnc2)c1.Cl | 21 |
| CCOc1cc(N2CCOCC2)c(OCC)cc1NC(=O)[C@H](C)N1C(=O)C2CC=CCC2C1=O (stereo partly drawn) | 3.46 |
| CSCCC(NS(=O)(=O)c1ccccc1F)C(=O)NCc1ccncc1 (stereo not drawn) | 10.9 |
| O=c1c2ccccc2nnn1CSc1ccccc1 | -8.25 |
| COc1ccc(CNCCNC(=O)c2cccs2)cc1OC.O=C(O)C(=O)O | -35.4 |
| Cn1nc(-c2ccc(Cl)cc2)cc1NC(=O)CSCC(=O)O | 19.9 |
| CCOC(=O)c1cc2occc2n1CC(=O)N1CCN(C(=O)c2ccco2)CC1 | -36.8 |
| COc1ccc(-n2c(Cc3cccn3C)nnc2SCC(=O)N2CCOCC2)cc1 | 4.84 |
| CC(C)N(C(=O)CSc1nnc(Cn2nnc3ccccc32)n1C)C(C)C | -3.04 |
| CCOP(=O)(OCC)C(Nc1ccccc1)c1cccnc1 (stereo not drawn) | 12.3 |
| COc1ccc(C(=O)OCc2cc(C)ccc2C)cc1S(=O)(=O)N1CCCC1 | -14.3 |
| Cc1cc(NC(=O)c2ccc(Cl)c(S(=O)(=O)N3CCCCC3)c2)no1 | 7.19 |

| SMILES | hERG current change (%, negative = inhibition) at 10uM [%] |
| --- | --- |
| O=C(CSc1nnnn1-c1ccc(F)cc1)Nc1nc2ccccc2s1 | 14.7 |
| Cl.O=C(OCCN1CCOCC1)c1ccccc1 | 14.6 |
| Cc1cccc(C)c1NC(=O)c1ccc(N2CCCC2=O)cc1 | -13.6 |
| COc1cc(C2C(C(=O)c3ccc(C)o3)=C(O)C(=O)N2Cc2ccccc2)ccc1O (stereo not drawn) | 9.1 |
| CSc1ccc(C(=S)N2CCN(C)CC2)cc1 | -30.1 |
| O=C(NCCN1CCN(c2ccccc2)CC1)c1cccn2c(=O)c3cc(Cl)ccc3nc12 | -45.4 |
| CC(C)(C)NC(=O)C(c1cccs1)N(Cc1ccc(F)cc1)C(=O)c1csnn1 (stereo not drawn) | -16.3 |
| COc1ccc(N(CC(=O)Nc2ccc3c(c2)OCO3)S(=O)(=O)c2ccccc2)c(OC)c1 | -5.01 |
| Cc1ccc(-c2nc(CS(=O)CC(=O)NCc3ccc(F)cc3)c(C)o2)cc1 (stereo not drawn) | 14.8 |
| CC1(C)Nc2ccccc2C(=O)N1NC(=O)c1ccccc1 | 2.48 |
| Cc1cc(NS(=O)(=O)c2ccc(NC(=O)/C=C/c3c(F)cccc3Cl)cc2)no1 | -0.145 |
| O=[N+]([O-])c1ccc(N2CCN(c3ccccc3Cl)CC2)cn1 | -34.3 |
| CCOC(=O)c1ccc(NC(=S)N2CCC(C(N)=O)CC2)cc1 | 0.421 |
| COc1ccc(NC(=O)CC(c2ccc(F)cc2)c2ccc(OC(C)C)cc2)cc1 (stereo not drawn) | 3.91 |
| COc1ccc(NC2CCCN(C(=O)Cn3ccc(C)n3)C2)cc1OC (stereo not drawn) | 21.5 |
| Cc1nc2cc(C(=O)O)ccc2n1-c1ccccc1 | 17.1 |
| COc1cc(/C=N/NC(=O)C(C)n2nnc3ccccc32)ccc1O (stereo not drawn) | 3.84 |
| O=C(CCCN1C(=O)/C(=C/c2ccccc2)SC1=S)Nc1ccccc1O | 22.9 |
| CCCCn1c(SCC(=O)c2ccc(O)c(O)c2)nc2ccsc2c1=O | -34.7 |
| COc1ccc(Cl)cc1NC(=O)NCc1ccc2c(c1)OCO2 | -20.8 |
| O=C1C=C(N2CCOCC2)CCC1 | 11.1 |
| O=[N+]([O-])c1cccc(/C([O-])=C(/C(=S)Nc2ccccc2F)[n+]2ccccc2)c1 | -6.87 |
| CNc1nc(SC(C)C(=O)Nc2ccc(Cl)c(Cl)c2)nc(N2CCOCC2)n1 (stereo not drawn) | 19.6 |

| SMILES | hERG current change (%, negative = inhibition) at 10uM [%] |
| --- | --- |
| CC(C)N(C(=O)CSc1ncnc2sc(-c3ccccc3)cc12)C(C)C | 9.99 |
| c1ccc(-c2noc(-c3ccco3)n2)nc1 | -14.5 |
| CCNC(=O)c1c(C)[nH]c(C(=O)OCC)c1C | 9.87 |
| CN(C)C=O.Cc1cccc(-n2nnnc2SCC(=O)N(CC(C)C)c2c(N)n(CC(C)C)c(=O)[nH]c2=O)c1 | 3.76 |
| CCc1cccc(CC)c1NC(=S)N(CCN(C)C)C(C)c1cccnc1 (stereo not drawn) | -15.4 |
| ON/C=N/C(=S)Nc1ncc(C(F)(F)F)cc1Cl | -10.6 |
| O=C(N/N=C/c1c(O)ccc2ccccc12)c1ccc(Br)o1 | 8.26 |
| N#Cc1ccc(-c2ccccc2)nc1SCC(=O)c1cc2ccccc2oc1=O | 22.1 |
| S=c1[nH]nc(-c2ccco2)n1/N=C/c1ccc(Cl)cc1 | 10.6 |
| COc1ccc(CNC(=O)C2=C(C)C(=O)OC23CCC(C)CC3)cc1 (stereo not drawn) | 11.5 |
| COc1ccc(Br)cc1/C(C)=N/NC1=NCCN1.Cl | -26.7 |
| COc1ccc(-c2nnn(CC(=O)N3CCN(c4ccccc4OC)CC3)n2)cc1OC | 19.3 |
| COCCC(=O)N1CCC(Oc2ccc(C(=O)NCCSC)cc2)CC1 | 13.6 |
| O=C(/C=C/c1ccc([N+](=O)[O-])cc1)NCc1ccco1 | -24.1 |
| O=C(CNS(=O)(=O)c1ccc(Cl)c(C(F)(F)F)c1)NC1CCCCCC1 | 4.24 |
| CN(C)c1ncc(S(=O)(=O)c2ccccc2)c(=O)[nH]1 | 17.7 |
| NCC(O)CN(c1ccccc1)c1ccccc1 (stereo not drawn) | 12 |
| O=C(O)C1=C[C@@H](c2coc3ccccc3c2=O)C[C@@H](OCCCCO)O1 | 22.8 |
| CC(C)(CNC(=O)Cc1ccc(NS(=O)(=O)c2cccc(C(F)(F)F)c2)cc1)N1CCOCC1 | -44.3 |
| O=C(CC(=O)Nc1ccccc1[N+](=O)[O-])Nc1ccccc1[N+](=O)[O-] | -6.49 |
| O=C(Nc1ccc(N2CCN(C(=O)c3ccco3)CC2)cc1)c1cc(Br)ccc1Cl | -7.3 |
